# In PubChem BioAssay AID720708 (National Center for Advancing Translational Sciences (NCATS), 2013):
# Out of some 360,000 compounds screened, about 660 (0.18%) were called active. The inconclusive results got no clear call from the source; some entries with a clear call stand among them for comparison. Calls follow the shape of the dose curve; as a rule, active = well fitted inhibition curve with a large enough effect; inconclusive = small, poorly fitted or top-dose-only effect; inactive = no such curve, though single readings can be large or run the other way. Potencies of inconclusive entries are left out as doubtful fits.
# Biological target: Rap guanine nucleotide exchange factor 4 (Homo sapiens) (UniProt Q8WZA2)
# UniProt Q8WZA2, sequence (Q8WZA2 whole entry, looked up): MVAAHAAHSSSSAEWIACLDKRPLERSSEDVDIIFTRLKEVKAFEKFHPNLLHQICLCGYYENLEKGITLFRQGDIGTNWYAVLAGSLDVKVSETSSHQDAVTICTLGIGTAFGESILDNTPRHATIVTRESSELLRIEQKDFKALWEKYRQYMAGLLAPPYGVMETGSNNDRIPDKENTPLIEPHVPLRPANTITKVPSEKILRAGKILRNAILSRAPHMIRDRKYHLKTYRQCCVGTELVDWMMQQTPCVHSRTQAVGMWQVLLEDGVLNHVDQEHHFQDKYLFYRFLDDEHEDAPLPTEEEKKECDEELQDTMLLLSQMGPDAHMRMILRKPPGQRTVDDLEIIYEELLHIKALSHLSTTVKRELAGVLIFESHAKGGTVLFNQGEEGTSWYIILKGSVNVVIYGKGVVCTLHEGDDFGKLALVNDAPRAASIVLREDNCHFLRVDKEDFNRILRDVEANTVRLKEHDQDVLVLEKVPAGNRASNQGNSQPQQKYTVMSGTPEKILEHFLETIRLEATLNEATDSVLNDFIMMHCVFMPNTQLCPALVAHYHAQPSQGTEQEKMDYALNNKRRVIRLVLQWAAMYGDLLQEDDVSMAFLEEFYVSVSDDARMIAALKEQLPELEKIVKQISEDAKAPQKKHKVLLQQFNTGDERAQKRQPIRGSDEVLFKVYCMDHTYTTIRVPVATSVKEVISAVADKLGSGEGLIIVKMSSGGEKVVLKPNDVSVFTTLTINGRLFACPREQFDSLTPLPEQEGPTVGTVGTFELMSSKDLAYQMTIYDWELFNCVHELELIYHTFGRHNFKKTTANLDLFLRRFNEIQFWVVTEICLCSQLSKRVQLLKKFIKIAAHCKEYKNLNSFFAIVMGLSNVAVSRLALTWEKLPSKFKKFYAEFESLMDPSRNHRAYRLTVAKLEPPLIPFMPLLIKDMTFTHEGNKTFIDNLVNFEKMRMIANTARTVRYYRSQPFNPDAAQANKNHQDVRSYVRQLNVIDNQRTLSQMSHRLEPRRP
# Experiment: qHTS for Antagonist of cAMP-regulated guanine nucleotide exchange factor 2 (EPAC2): primary screen; also: nearly all actives have a fitted effect of over 45% in size
# Conditions: EPAC2 GEF exchange of Rap1B-BODIPY-GDP, fluorescence; activity, negative = inhibition: at 114 µM (top of the series) unless noted
# Description: In multi-cellular eukaryotic organisms, the effects of cAMP are transduced by two ubiquitously-expressed intracellular cAMP receptors, the classic protein kinase A/cAMP-dependent protein kinase (PKA/cAPK) and the more recently discovered exchange protein directly activated by cAMP/cAMP-regulated guanine nucleotide exchange factor (EPAC/cAMP-GEF). Both PKA and EPAC are ubiquitously expressed in all tissues, and an increase in intracellular cAMP levels will lead to the activation of both PKA and EPAC. Therefore, careful dissections of the individual role and relative contribution of EPAC and PKA within the overall cAMP signaling in various model systems are critical for further elucidating the mechanism of cAMP signaling. To date no EPAC-specific antagonists and agonist, as well as isoform-specific agonists have been reported, and developing EPAC-specific pharmacological probes to determine the physiological functions that EPAC play in the overall cAMP-mediated signaling remains a major challenge within the research field. Furthermore, identified regulators of EPAC may lead to new mechanism-based therapeutic strategies specifically targeting the EPAC / cAMP-signaling components as EPAC has been implicated to play important roles in major human pathological conditions such as diabetes, heart disease, and cancer.
# This qHTS will be used to screen the Molecular Libraries Small Molecule Repository (MLSMR) as a concentration-titration series using the NCGC unique quantitative screening (qHTS) platform to find inhibitors for EPAC2. In addition, this assay will also be used as a counterscreen for the EPAC1 qHTS. This fluorescent based assay is developed and validated for EPAC2 that measures exchange using EPAC effector Rap1 complex with BODIPY-GDP, a GDP analog with a tethered fluorophores. Inhibitors are identified by monitoring the change in fluorescence signal as the exchanged free BODIPY-GDP has a reduced fluorescence compared to Rap1-bound BODIPY-GDP. Decrease in signal (inhibition) is the desired outcome for the EPAC2 antagonist while no activity in this assay is desired for the EPAC1 antagonist counterscreen.
# NIH Chemical Genomics Center [NCGC]
# NIH Molecular Libraries Probe Centers Network [MLPCN]
# Assay Submitter (PI): Xiaodong Cheng, The University of Texas, Medical Branch
# Briefly, three uL of reagents (100 nM EPAC2, 250 nM RAP1B-BODIPY-GDP, 50 uM GDP) were dispensed into a 1536-well Greiner black solid-bottom medium binding assay plate. Controls and test compounds (23 nL) were transferred to the plate via a Kalypsys pin tool equipped with a 1536-pin array. The plates were centrifuged at 1,000 rpm for 15 seconds followed by 5 minute incubation at room temperature. The assay plates were read at 5 minute intervals for 30 minutes in the ViewLux plate reader using 480nm excitation and 540nm emission filters. The results were normalized to the agonist positive control ATA and DMSO.
# % is scaled to controls: 0 for no effect and ±100 for the full control effect; potency is read from the fitted curve at half-maximal effect; tags tell the direction and shape of the fitted curve.
Compound,Potency,"activity, negative = inhibition"
COc1ccc(C(=O)c2ncc(C(F)(F)F)cc2Cl)cc1,"inconclusive [inhibitor, single point]",
COc1cc(C=O)c(-c2c(C=O)cc(OC)c3c2OCO3)c2c1OCO2,"inconclusive [inhibitor, partial curve]",
CCCc1nc2ccc(C)cn2c1Cc1cccc(Cl)c1,"inconclusive [inhibitor, partial curve, poor fit]",
Cc1ccc(S(=O)(=O)N2[C@@H](c3ccc(Br)cc3)C(C(=O)O)=CC[C@H]2c2ccc(C(C)C)cc2)cc1,"inconclusive [inhibitor, partial curve]",
COCc1cccc(-c2csc(C(NC(C)=O)c3cccc(OC)c3)n2)c1 (stereo not drawn),"inconclusive [inhibitor, full curve, poor fit]",
CCOC(=O)C(=Cc1ccccc1)C(=O)c1ccccc1,"inconclusive [inhibitor, full curve, poor fit]",
C=C(C)COc1ccc(-c2nc(N)ncc2Oc2ccc(OC)cc2)c(O)c1,"inconclusive [inhibitor, full curve, poor fit]",
CC(=O)CCc1oc2ccc(C)cc2c1-c1ccc(C)o1,"inconclusive [inhibitor, partial curve]",
COc1ccccc1CNC(=O)C1(C)CCN1Cc1ccc(OC(F)(F)F)cc1 (stereo not drawn),"inconclusive [inhibitor, partial curve]",
CC1=NOC(=O)/C1=C\c1ccc(-c2ccc(Cl)cc2Cl)o1,"inconclusive [inhibitor, single point]",
Cc1ccc(NC(=O)Cn2c(CCC(=O)O)ccc2-c2cccs2)cc1Cl,"inconclusive [inhibitor, full curve, poor fit]",
O=c1c2ccccc2c2ccccc2c(=O)n1Cc1ccc2c(c1)OCO2,"inconclusive [inhibitor, full curve, poor fit]",
N#Cc1ccccc1NC(=O)CN(Cc1ccccc1)Cc1ccccc1,"inconclusive [inhibitor, partial curve]",
CCCCC1Cc2[nH]c(=S)[nH]c(=O)c2C(c2ccc(C(C)C)cc2)O1 (stereo not drawn),"inconclusive [inhibitor, full curve]",
C=CCN(c1ccc(Cl)cc1)S(=O)(=O)c1cccc(C(=O)O)c1,"inconclusive [inhibitor, partial curve, poor fit]",
CCC(=O)N1CCN(c2ccccc2NC(=O)COc2ccc(C(C)C)cc2)CC1,"inconclusive [inhibitor, partial curve]",
COCCN(CCOC)Cc1cc(=O)oc2ccc3ccccc3c12,"inconclusive [inhibitor, full curve]",
Cc1ccc(N2C(=O)CC(N3CCN(c4ccc(F)cc4)CC3)C2=O)c(C)c1 (stereo not drawn),,inactive: 8.15%
CCCCc1ccc(NC(=O)CC(C)=O)cc1,,inactive: -2.62%
Cc1ccnc(NC(=O)c2ccc3c(c2)NC(=O)C(C)S3)c1 (stereo not drawn),"inconclusive [inhibitor, single point]",
CSc1ccccc1NC(=O)c1cc(-c2ccc3c(c2)OCO3)on1,,inactive: 3.11%
Cc1cc(C)nc(NS(=O)(=O)c2ccc(NC(=O)Cc3ccccc3F)cc2)n1,"inconclusive [inhibitor, partial curve]",
CC(C)(C)NC(=S)NNC(=O)c1cccc(Br)c1,,inactive: 0.513%

Compound,Potency,"activity, negative = inhibition"
CCCCn1cc2c(c1-c1cccc(C)c1)c(=O)n(C)c(=O)n2C,"inconclusive [inhibitor, partial curve]",
O=C(CCSCc1cccc(F)c1)NCc1ccc(F)cc1,"inconclusive [inhibitor, single point]",
CNc1nc(Oc2ccc3sc(C)nc3c2)c2sccc2n1,,inconclusive: -34.4% [inhibitor]
CCOC(=O)N1CCN(C(=O)CCN2C(=O)/C(=C\c3ccc(OC)c(OC)c3)SC2=S)CC1,,inactive: 28.2%
Cc1nc2sccn2c(=O)c1CCN1CCC(=C(c2ccc(F)cc2)c2ccc(F)cc2)CC1,"inconclusive [inhibitor, partial curve]",
CC(C)(C)Cc1c(-c2ccc(F)cc2)nc2ccc(Cl)cn12,"inconclusive [inhibitor, partial curve]",
COc1cc(NC(=O)c2ccccc2)c(OC)cc1NC(=O)Cc1cccs1,"inconclusive [inhibitor, partial curve]",
Cc1cc(C)c2c(CN(C)Cc3ccccc3)cc(=O)oc2c1,,inactive: -27.2%
CC(=O)Nc1ccc(OCc2cccc([N+](=O)[O-])c2)cc1,"inconclusive [inhibitor, partial curve]",
O=S(=O)(Nc1cccc2cccnc12)c1ccccc1,"inconclusive [inhibitor, full curve]",
CCOc1ccc(C(=O)NC(C)C2COc3ccccc3O2)cc1 (stereo not drawn),"inconclusive [inhibitor, partial curve]",
Cc1c(CCC(=O)O)c(=O)oc2c(C)c3occ(-c4ccc(Br)cc4)c3cc12,"inconclusive [inhibitor, partial curve]",
Fc1cccc(Cl)c1Cn1nnc(-c2ccc(N3CCOCC3)cc2)n1,,inactive: -4.11%
CCNc1nc(NCC)nc(Oc2ccc(N)cc2)n1,,inactive: 3.14%
Cc1ccc(C2=NN(C(=O)CCl)C(c3cccs3)C2)o1 (stereo not drawn),"inconclusive [inhibitor, partial curve]",
Cc1ccc(NC(=O)CN2c3cccc4cccc(c34)S2(=O)=O)cc1,,inactive: -2.37%
CCCCCCc1cc2cc(S(=O)(=O)c3ccc(F)cc3)c(=O)oc2cc1O,,inactive: 8.55%
CCOC(=O)C(Oc1ccc2c(-c3ccccc3)cc(=O)oc2c1C)c1ccccc1 (stereo not drawn),,inactive: -0.502%
COC(=O)c1scc(C#N)c1N/N=C(\C#N)S(=O)(=O)c1ccc(Cl)cc1,"inconclusive [inhibitor, full curve]",
COc1ccc(C(C)=O)cc1CSc1ccc2c(c1)OCCO2,"inconclusive [inhibitor, partial curve]",
O=C(OCc1c(F)cccc1Cl)c1cccnc1Cl,"inconclusive [inhibitor, partial curve]",
O=C(N/N=C/c1ccc([N+](=O)[O-])s1)c1ccncc1,,inactive: -14.9%
O=C(CC1SC(=O)N(Cc2ccccc2)C1=O)Nc1nccs1 (stereo not drawn),"inconclusive [inhibitor, full curve, poor fit]",

Compound,Potency,"activity, negative = inhibition"
Oc1ccccc1/C=N/N1CCN(c2ccccn2)CC1,,inactive: -7.41%
COc1cc2ccccc2cc1C(=O)N(CCN(C)C)c1nc2ccc(C)cc2s1,"inconclusive [inhibitor, partial curve]",
COc1ccc(NC2(c3ccccc3)OC(=O)c3ccccc32)cc1 (stereo not drawn),"inconclusive [inhibitor, partial curve]",
CCc1nc2c(OCc3ccc(C(=O)OC)cc3)cccn2c1N(C)C(=O)CC(C)C,"inconclusive [inhibitor, full curve]",
COc1ccc(OC)c(N(CCN2C(=O)c3ccccc3C2=O)C(=O)CCl)c1,,inactive: -0.694%
CCOC(=O)C(C)n1nc(-c2ccccc2)c2ccccc2c1=O (stereo not drawn),"inconclusive [inhibitor, partial curve]",
O=C1CCCCC1Nc1ccc2ccccc2c1 (stereo not drawn),"inconclusive [inhibitor, full curve, poor fit]",
COc1cc(/C=C2\SC(=O)N(c3cccc(Cl)c3)C2=O)cc([N+](=O)[O-])c1O,"inconclusive [inhibitor, single point]",
Cc1cc(C(=O)c2ccccc2)cc(C)c1O,,inactive: 12.7%
CCOc1ccc(N(CC(=O)Nc2ccc(OC)cc2)S(=O)(=O)c2c(C)noc2C)cc1,"inconclusive [inhibitor, single point]",
Cc1ccc(CN2C(=O)C(F)(F)Oc3ccccc32)cc1,"inconclusive [inhibitor, full curve, poor fit]",
CC1=C(C(=O)Nc2cccc([N+](=O)[O-])c2)C2(CCC(C)CC2)OC1=O (stereo not drawn),"inconclusive [inhibitor, partial curve]",
CCOC(=O)c1cnc2c(OC)cccc2c1N1CC(C)CC(C)C1 (stereo not drawn),"inconclusive [inhibitor, partial curve]",
COCOCCn1cc(CN2CCS(=O)(=O)N(Cc3ccc(-c4ccc(OC)cc4)cc3)C(C)C2=O)nn1 (stereo not drawn),,inactive: 0.139%
N#C/C(=C\c1c(N2CCC(C(N)=O)CC2)nc2ccccn2c1=O)S(=O)(=O)c1ccc(Cl)cc1,"inconclusive [inhibitor, partial curve]",
C=CCN1C(=O)/C(=C/C=C2/N(CC)c3ccc(S(=O)(=O)N(C)C)cc3N2CC)SC1=S,,inactive: -0.517%
CCN(CC)c1ccc(/C=C(/C#N)c2nc3ccc(C)cc3[nH]2)c(OC(C)C)c1,,inactive: 0.955%
COc1ccc(-c2sc3ccccc3c2C#CCO)cc1,"inconclusive [inhibitor, partial curve]",
O=C(CSc1nc2ccccc2[nH]1)N/N=C/c1ccco1,,inactive: 14.1%
CC(C)S(=O)(=O)c1nsc2nc(=O)c(/C=C3\C=Nc4ccccc43)c(N)n12,"inconclusive [inhibitor, partial curve, poor fit]",
COc1cccc(C2=NN(C(C)=O)C(c3cccs3)C2)c1 (stereo not drawn),"inconclusive [inhibitor, single point]",
COc1cc(/C=C2/C(=N)N3C(=NC2=O)SN=C3S(C)(=O)=O)ccc1OS(=O)(=O)c1ccc(C)cc1,"inconclusive [inhibitor, partial curve]",
